According to PMC4336329 (PLoS ONE, 2015):
Screen size: about 310,000 compounds; about 2,200 (0.71%) showed an effect of 50% or more. Effects have a minus sign here. This is one part of the list.

Target: human ether-à-go-go-related gene (hERG) potassium channel (human, UniProt Q12809)
Test: primary screen, population patch clamp on CHO cells stably expressing hERG

Sequence of human ether-à-go-go-related gene (hERG) potassium channel (Q12809 whole entry, looked up): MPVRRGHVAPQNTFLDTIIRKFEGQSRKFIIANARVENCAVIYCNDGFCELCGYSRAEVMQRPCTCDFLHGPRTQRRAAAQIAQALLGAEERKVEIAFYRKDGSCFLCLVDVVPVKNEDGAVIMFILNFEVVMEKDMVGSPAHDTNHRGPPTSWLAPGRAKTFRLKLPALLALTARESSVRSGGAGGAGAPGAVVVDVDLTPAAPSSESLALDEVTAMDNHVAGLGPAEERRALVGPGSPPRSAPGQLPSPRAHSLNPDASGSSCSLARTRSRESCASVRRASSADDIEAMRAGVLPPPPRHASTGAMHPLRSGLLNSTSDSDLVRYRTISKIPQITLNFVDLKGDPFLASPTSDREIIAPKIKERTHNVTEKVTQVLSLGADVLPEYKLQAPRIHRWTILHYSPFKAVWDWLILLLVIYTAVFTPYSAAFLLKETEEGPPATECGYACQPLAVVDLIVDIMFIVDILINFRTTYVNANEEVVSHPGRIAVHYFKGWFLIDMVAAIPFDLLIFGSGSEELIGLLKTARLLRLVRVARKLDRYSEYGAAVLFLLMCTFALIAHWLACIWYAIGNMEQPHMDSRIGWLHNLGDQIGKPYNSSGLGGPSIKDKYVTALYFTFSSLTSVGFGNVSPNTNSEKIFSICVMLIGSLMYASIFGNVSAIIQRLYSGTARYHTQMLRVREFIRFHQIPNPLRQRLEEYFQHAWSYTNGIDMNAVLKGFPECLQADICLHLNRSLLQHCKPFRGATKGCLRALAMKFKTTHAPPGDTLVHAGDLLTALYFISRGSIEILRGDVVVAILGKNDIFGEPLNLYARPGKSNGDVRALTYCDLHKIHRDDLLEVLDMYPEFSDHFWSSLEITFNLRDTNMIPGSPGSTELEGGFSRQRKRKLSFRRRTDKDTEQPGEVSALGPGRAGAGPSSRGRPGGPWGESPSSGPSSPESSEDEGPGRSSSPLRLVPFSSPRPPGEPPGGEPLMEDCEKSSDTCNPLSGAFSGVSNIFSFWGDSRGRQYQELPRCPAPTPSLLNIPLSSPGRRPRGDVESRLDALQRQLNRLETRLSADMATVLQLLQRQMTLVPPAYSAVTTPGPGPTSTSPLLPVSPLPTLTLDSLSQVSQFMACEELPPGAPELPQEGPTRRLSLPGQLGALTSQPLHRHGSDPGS

Compound | hERG current change (%, negative = inhibition) at 1uM
CCCCOc1ccc(-c2csc(N)n2)cc1[N+](=O)[O-] | 13%
COc1ccc(CCn2c(N3CCN(C)CC3)nc3c2c(=O)[nH]c(=O)n3C)cc1 | 1.04%
CCc1nnc(NC(=O)CC(CN(C)S(=O)(=O)c2ccccc2)c2ccccc2)s1 (stereo not drawn) | 21%
CCCCn1c(N)c(N(CCOC)C(=O)c2ccc(C)c(S(=O)(=O)N3CCCCC3)c2)c(=O)[nH]c1=O | 25.7%
COc1ccc(CNC(=O)CSc2nnc(C(F)(F)F)n2C)cc1 | 18.8%
CCN1CCCC1CN(Cc1cc2ccc(C)cc2[nH]c1=O)C(=S)Nc1cccc(OC)c1 (stereo not drawn) | -44%
CCCCn1c(N)c(N(CCC(C)C)C(=O)c2cccc(N3C(=O)c4ccccc4C3=O)c2)c(=O)[nH]c1=O | 4.4%
CC(C)(C)CN1CCNC[C@H]1Cc1cccc2ccccc12 | 14.8%
CCn1c(CC(=O)Nc2ccccc2)nnc1SCC(=O)Nc1nnc(C)s1 | 14.7%
CCCCNC(=O)/C(C#N)=C/c1ccc(C(=O)OC)cc1 | 15.1%
CC1CCCCC1NC(=O)CSc1nc2ccccc2c(=O)n1Cc1ccco1 (stereo not drawn) | 12.9%
CC(C)C[C@H](NC(=O)[C@@H]1Cc2c([nH]c3ccccc23)C2c3ccccc3C(=O)N21)C(=O)N1CCC[C@@H]1C(=O)O (stereo partly drawn) | 7.08%
COc1ccc(NS(=O)(=O)c2cccc(C(=O)NCc3ccco3)c2)cc1 | -5.46%
O=C(Nc1ccc(S(=O)(=O)N2CCCCC2)cc1)C1CC(=O)N(c2ccc(Cl)cc2)C1 (stereo not drawn) | 9.9%
CN(C)S(=O)(=O)c1cccc(C(=O)N2CCC(C(=O)O)(c3ccccc3)CC2)c1 | 17.6%
COc1ccc(NC(=O)C(Sc2ccccc2)c2ccccc2)c(OC)c1 (stereo not drawn) | -0.796%
CC12CCC(C(=O)N3CCCCC3)([C@H](Br)C1=O)C2(C)C (stereo partly drawn) | 12.8%
CC1(C)Cc2c(C#N)c(SCCOc3ccccc3)nc(N3CCOCC3)c2CO1 | 7.33%
CC(=O)C(Sc1nc(N2CCOCC2)nc(N2CCOCC2)n1)C(=O)Nc1ccccc1 (stereo not drawn) | 6.79%
O=C(/C=C/c1ccc(OCCCF)cc1)NCc1ccc(Cl)c(Cl)c1 | 7.75%
CC(=O)c1c(C)oc2ccc(NS(=O)(=O)c3cccs3)cc12 | 11%
COc1ccccc1CNC(=O)C(=O)c1cn(CC(=O)N2CCOCC2)c2ccccc12 | 18%

Compound | hERG current change (%, negative = inhibition) at 1uM
Cc1c(NC(=O)COC(=O)CCc2c[nH]c3ccccc23)c(=O)n(-c2ccccc2)n1C | -4.93%
O=C(NCc1ccccc1)c1sc(=S)n2c1[nH]c(=O)c1ccccc12 | -4.75%
O=C(N/N=C/c1cccnc1)c1ccc2c(c1)OCCO2 | -5.82%
COc1ccc(Cc2nn[nH]n2)cc1 | 0.0315%
CCOC(=O)c1c(P(=O)(N2CCOCC2)N2CCOCC2)noc1N | 2.4%
COc1ccccc1C1CC(c2cccs2)=NN1C(=O)CCC(=O)O (stereo not drawn) | 9.5%
Cn1c(COc2ccc(Br)cc2)nnc1SC1CCc2ccccc2C1=O (stereo not drawn) | 10.7%
Cc1ccc(C2CC(=O)C(C=NCCN3CCN(C(=S)Nc4ccc(F)cc4)CC3)=C(O)C2)cc1 (stereo not drawn) | -7.16%
CCN1C(=O)CC(N2CCN(C(c3ccccc3)c3ccccc3)CC2)C1=O (stereo not drawn) | 3.52%
NC(=O)C1CCN(C(=O)COc2cccc3cccnc23)CC1 | 13.2%
C=Cc1ccc(C2=CC(=O)C[C@H](c3ccc(OC)cc3)C2)cc1 | 14.5%
Cc1ccc(NCc2nnc(SCCN3CCCCC3)n2CC2CCCO2)cc1Cl (stereo not drawn) | -59.1%
Cc1ccccc1Nc1n[nH]c(C)c1[N+](=O)[O-] | 12.3%
CC(=O)c1ccc(N2CCN(C(=O)c3cc4c(s3)CCCC4)CC2)cc1 | -1.15%
CCOC(=O)C1=C(C)N=c2s/c(=C3\C(=O)Nc4ccccc43)c(=O)n2C1c1ccc2c(c1)OCO2 (stereo not drawn) | 4.52%
N/C(CCS(=O)(=O)c1ccc(Cl)cc1)=N\OC(=O)c1ccccc1C(F)(F)F | -5.27%
C/C(N)=C(/C#N)C(=O)CSc1ccccc1F | 18%
N#Cc1c(N)n(C2CCCCC2)c2nc3ccccc3nc12 | 14.8%
CC1(C)CC(=O)C(C(C2=C(O)CC(C)(C)CC2=O)c2ccc(Cl)c([N+](=O)[O-])c2)C(=O)C1 (stereo not drawn) | -5.61%
Cc1sc(N)c(C#N)c1C | 4.65%
CC1CCCCN1C(=O)Cn1cc(C=C2C(=O)N(C)C(=O)N(C)C2=O)c2ccccc21 (stereo not drawn) | 8.86%
O=C(C1=C[C@H](c2ccccc2)C[C@H](OCCCCO)O1)N1CCN(Cc2ccc3c(c2)OCO3)CC1 | -8.06%

Compound | hERG current change (%, negative = inhibition) at 1uM
O=C(CN1CC[C@@]2(O)CCCC[C@H]2[C@@H]1c1ccc(F)cc1)NCc1ccco1 | 3.24%
CCn1cc(CN2CCC(n3nccc3NC(=O)c3cccc(F)c3)CC2)c(C)n1 | 14.2%
CC(=O)N1CCN(c2ccccc2NC(=O)COc2ccccc2C)CC1 | 14.7%
COc1ccc(/C=C/C(=O)O)cc1S(=O)(=O)N1CCC(Cc2ccccc2)CC1 | 14.9%
O=C1NC(=S)S/C1=C\c1ccc(SCc2ccco2)o1 | -3.45%
O=C(O)c1ccn(Cn2cnc3ccccc32)n1 | 4.47%
CCOC(=O)c1c(C)[nH]c(C)c1S(=O)(=O)N1CCC(c2ccccc2)C1 (stereo not drawn) | 12.5%
Cc1ccc(NC(=O)c2cccs2)cc1NC(=O)c1ccco1 | 10.1%
Nc1c(C(=O)OC2CCCCC2)c2nc3ccccc3nc2n1CC1CCCO1 (stereo not drawn) | -13%
NS(=O)(=O)OCCCCCc1ccccc1 | 16.1%
Cc1ccnc2nc(C(=O)OCCOc3ccc(Cl)cc3)nn12 | -2.12%
COCCOC(=O)c1[nH]c2c(c1C)C(=O)CC(c1ccc(OC)cc1)C2 (stereo not drawn) | 9.46%
COc1ccc(/C(C)=N/N=C(N)N)c(OC)c1 | -1.56%
COc1ccc(C(=O)NC(=S)N2CC(C)OC(C)C2)cc1OC (stereo not drawn) | 7.44%
O=C(Nc1ccc2c(c1)C(=O)OC2)c1ccc(C(F)(F)F)cc1 | 13.8%
Cc1ccc(/C=C2/C(=O)NC(=O)N(Cc3ccc(F)cc3)C2=O)o1 | 15.7%
Cn1cc(CNC(=O)CC2C(=O)NCCN2CC(C)(C)C)cn1 (stereo not drawn) | 11.7%
C=CCNC(=O)NC(=S)c1ccccc1 | 3.7%
COC(=O)c1sccc1NC(=O)Nc1cc(C)cc(C)c1 | 20.7%
COCc1c(C(=O)NC2CCCCC2)sc2cccc(F)c12 | 4.68%
C/C(=N\NC(=S)Nc1ccccc1C)C1Cc2ccccc2C(=O)O1 (stereo not drawn) | -0.045%
Cc1cccc(OCC2Cn3c(nc4c3c(=O)[nH]c(=O)n4C)O2)c1 (stereo not drawn) | 17.6%

Compound | hERG current change (%, negative = inhibition) at 1uM
O=C(O)CSC1CC(=O)N(c2ccc(Cl)cc2)C1=O (stereo not drawn) | 15.8%
COc1ccc(C(C)=O)cc1COC(=O)c1cnc(C)cn1 | 17.6%
CN(Cc1cccs1)C(=O)CCc1ccc(S(=O)(=O)N2CCOCC2)cc1 | 0.097%
Cc1noc(C)c1COc1ccc(C(=O)OC(C)C(=O)Nc2ccc(S(=O)(=O)N3CCOCC3)cc2)cc1 (stereo not drawn) | 15%
O=C1CNC(=O)/C1=C\N1CCN(C(c2ccccc2)c2ccccc2)CC1 | 5.02%
Cc1cc(NC(=O)c2cc([N+](=O)[O-])cc([N+](=O)[O-])c2)no1 | 14.2%
CC(C)OCC1Cn2c(nc3c2c(=O)n(C)c(=O)n3C)O1 (stereo not drawn) | 15.5%
Cc1cc(SCC(=O)NCCCN2CCCC2=O)nc2ccccc12 | 10.3%
O=C(c1ccc(Cl)cc1)N1CCC(c2nc(-c3cccs3)no2)CC1 | 1.98%
O=C(Nc1ccc(NC(=O)c2ccccc2Cl)cc1)c1cccnc1 | 16.6%
COc1cccc(-c2nnc(SCC(N)=O)n2-c2ccc(Cl)cc2)c1 | -1.77%
O=C(O)CC1=C(O)C(=O)N(c2ccccc2)C1c1ccccc1 (stereo not drawn) | 13.6%
CN(C)CCOC(=O)c1cn(Cc2ccccc2)c2ccccc12.Cl | -18.4%
CCCC(=O)N(C)c1nnc(-c2ccc(OC)cc2)s1 | 14.2%
NS(=O)(=O)c1ccc(CCNC(=O)C2CCCN2C(=O)OCc2ccccc2)cc1 (stereo not drawn) | 12.4%
Cc1cccc2cc(C#N)c(NCCCn3ccnc3)nc12 | -11.1%
CN1C(=O)/C(=C/c2ccccc2OCc2ccccc2F)NC1=S | 13.8%
COc1ccc(NS(=O)(=O)c2ccc(C)c(NC(=O)c3ccc(C)c(S(=O)(=O)N4CCOCC4)c3)c2)cc1 | 9.07%
CCOc1ccc(CNCCN2CCCC2)cc1.O=C(O)C(=O)O | -18.2%
CCOc1ccc(C(=O)N2CCN(c3cccc(Cl)c3)CC2)cc1 | -20.3%
Cc1[nH]c2ccccc2c1/C=C(\C#N)C(=O)NCC1CCCO1 (stereo not drawn) | 10.9%
